# Where “and” joins values, the source holds several entries; their conditions need not be identical. Equal entries are not always repeated. The shares of active, inactive and inconclusive entries below differ from those in the screen. Potencies of inconclusive entries are doubtful fits and often do not repeat. Calls of active or inactive are those of the source. Calls come from the whole dose curve; as a rule, active = well fitted inhibition curve with a large enough effect; inconclusive = small, poorly fitted or top-dose-only effect, or effect the other way; inactive = flat fitted curve, though single readings scatter.
# Experiment: qHTS for Inhibitors of Plasmodium falciparum (GB4) proliferation (AID 504315); note: nearly all actives have a fitted effect of over 50% in size
# Details: P. falciparum GB4 in erythrocytes, SYBR Green DNA, 72 h; series mostly up to 6.7 µM
# From the text: Plasmodium falciparum is a virulent malarial parasite that kills 1-2 million people worldwide each year. Malaria not only inflicts tremendous suffering and morbidity on the human population, but has dramatically influenced the course of civilization with profound sociological and economic implications (Shah, S. 2010). Transmitted by mosquitoes, the sporozoite form of the parasite enters the blood stream to infect hepatocytes, where they become merozoites that infect red blood cells (erythrocytes). Within erythrocytes, merozoites begin a […] cycle of growth and division, after which the parasite is released to infect new red blood cells. Gametocytes, which form within erythrocytes as well, circulate in the bloodstream and are ingested by the mosquito, thereby completing the life cycle (see CDC website). To profile malarial lines for differential chemical responses and to identify inhibitors of malarial growth, an assay that measures P. falciparum growth and replication within erythrocytes was employed. This assay uses a DNA binding fluorescent dye (SYBR Green) to detect parasite DNA following cell lysis. Because mature erythrocytes lack DNA, only Plasmodium-derived DNA is detected. The P. falciparum line cp250, derived from a malarial isolate from Cambodia, (Mu, J., et al. 2010) was added to the panel of lines, Dd2, HB3, 7G8 and GB4 in this study. Laboratory of Assay Development and Screening Technology [ADST] and NIH Chemical Genomics Center [NCGC] Boston University, Chemistry Department, Center for Chemical Methodology and Library Development [CMLD-BU] NIH National Institute of Allergy and Infectious Diseases [NIAID]
# ADST Assay Protocol Summary: The 1536-well SYBR Green viability assay was based on the method of Bennett et al (2004) and described previously in 1536-well format (Yuan J., et al. 2009). For screening 3 ul culture medium was dispensed into 1536 well black clear bottom plates (Aurora Biotechnologies) using a Multidrop Combi (Thermo Fisher Scientific Inc.), 23 nL compounds in DMSO were added by a pin transfer (Cleveland, P.H. and Koutz, P.J, 2005) using a pin tool-based delivery system (Kalypsys), and 5 ul of erythrocytes infected with P. falciparum one of five lines (cp250, Dd2, HB3, 7G8 or GB4, 0.3% parasitemia, 2.5% hematocrit final concentration) were added. The plates were incubated at 37C in a humidified incubator in 5% CO2 for 72 h, and 2 ul lysis buffer (20 mM Tris HCl, 10 mM EDTA, 0.16% saponin, 1.6% triton X, 10X SYBR Green I (supplied as 10,000X final concentration by Invitrogen) was added to each well. The plates were mixed for 25 sec with gentle shaking and incubated overnight at room temperature in the dark. The following morning, fluorescence intensity at 485(14) nm excitation and 535(25) nm emission wavelengths was measured on an EnVision (Perkin Elmer) plate reader. Plate reads were normalized relative to the control inhibitor (0.29 uM artemisinin) and vehicle (DMSO) wells present on each plate and then corrected by an algorithm using vehicle-only control plates at the beginning and end of the compound plate stack. References Shah, S. (2010). The Fever: how malaria has ruled humankind for 500,000 years. New York, Sarah Crichton Books. CDC web site, http://www.cdc.gov/malaria/about/biology/index.html Mu, J., Myers, R.A., Jiang, H., Liu, S., Ricklefs, S., Waisberg, M., Chotivanich, K., Wilairatana, P., Krudsood, S., White, N.J., et Plasmodium falciparum genome-wide scans for positive selection, recombination hot spots and resistance to antimalarial drugs Nature Genetics 2010, 42, pp 268-271 Bennett TN, Paguio, M., Gligorijevic, B., Seudieu, C., Kosar, A. D., Davidson, E., and Roepe, P. D. Novel, rapid, and inexpensive cell-based quantification of antimalarial drug efficacy Antimicrobial Agents Chemother. 2004, 48(5): pp 1807-10 Yuan J, Johnson RL, Huang RL, Wichterman J, Jiang HY, Hayton K, Fidock DA, Wellems TE, Inglese J, Austin CP, Su XZ. […]
# Potency is the fitted concentration of half-maximal effect; tags give direction and shape of the fitted curve.
row,Compound,Potency
1,CCCCC1=CC2=C(c3ccco3)C(=O)C(C)(OC(=O)c3ccc(OC)cc3)C(=O)C2=CN1CCCCO (stereo not given),"inconclusive: 953 nM [activator, partial curve, poor fit] and inactive"
2,CC1COc2ccccc2C1=O (stereo not given),active: 1.9 µM
3,Fc1ccccc1-c1nc(-c2ccccc2)oc1NC1CCCCC1,inactive
4,c1ccc(CNc2oc(-c3ccccc3)nc2-c2cccc3ccccc23)cc1,"inconclusive: 2.69 µM [inhibitor, single point] and inconclusive: 3.01 µM [inhibitor, single point]"
5,C[C@H]1CC[C@H]2C(=O)N(Cc3ccccc3)C[C@H](O)CN2[C@H]1c1cccc(Br)c1,"inconclusive: 1.51 µM [inhibitor, single point]"
6,O=C1C2=C(C(=O)c3ccccc31)[C@H]1O[C@](CCCCN3C(=O)c4ccccc4C3=O)(Cc3ccccc31)O2,active: 1.69 µM
7,COCOc1ccc(OC)cc1C(=O)C=Cc1ccc(OC)c(Br)c1,"inconclusive: 1.9 µM [inhibitor, single point]"
8,C=CCC(C)(NCc1ccccc1)C(=O)OCC (stereo not given),"inconclusive: 0.006 µM [inhibitor, full curve, poor fit]"
9,COc1ccc([C@]23Cc4cc(OC)c(OC)cc4[C@H](O2)c2c(c4ccccc4oc2=O)O3)cc1,inactive
10,COC(=O)C1=C[C@H]([C@@H](C)[C@H](OC)c2ccccc2Br)[C@H]2c3ccccc3O[C@@H]12,"inconclusive: 0.0135 µM [inhibitor, full curve]"
11,FC(F)(F)c1cc(NC(=S)NC23CC4CC(CC(C4)C2)C3)cc(C(F)(F)F)c1,active: 1.07 µM
12,C[C@@H]1CC[C@H]2C(=O)N(Cc3ccccc3)C[C@H](O)CN2[C@H]1c1ccc(Br)cc1,inactive
13,COC(=O)C1=C(C)N(Cc2ccccc2)C(=NCCc2cccnc2)NC1c1ccc(Br)cc1 (stereo not given),"inconclusive: 1.69 µM [inhibitor, partial curve]"
14,CC1(OC(=O)C2CCCC2)C(=O)C=C2C=C(c3ccsc3)N(CCCCO)C=C2C1=O (stereo not given),inactive
15,CCCCn1c(C)cc2c(c1=O)[C@H]1O[C@](c3ccsc3)(Cc3ccccc31)O2,"inconclusive: 1.69 µM [inhibitor, partial curve]"
16,COc1ccc(-c2nc3c(c4c2C[C@H](c2ccccc2)OC4)CN(C(=O)N[C@@H](C)C(=O)OC(C)C)CC3)c(C)c1,"inconclusive: 1.69 µM [inhibitor, partial curve]"
17,CCOC(=O)CCCNC(=O)N1CCc2nc(-c3ccc(OC)cc3C)c3c(c2C1)CO[C@@H](c1ccccc1)C3,"inconclusive: 1.9 µM [inhibitor, single point] and inconclusive: 1.69 µM [inhibitor, partial curve]"
18,CCN1C(=O)NC(c2cccc(C(F)(F)F)c2)C(C(C)=O)=C1C (stereo not given),inactive
19,CCCCCCCC1=Cc2ccccc2C(C(C(C)=O)C(=O)OC)N1C(=O)OC (stereo not given),"inconclusive: 1.69 µM [inhibitor, partial curve] and inconclusive: 4.26 µM [inhibitor, single point]"
20,COc1ccc2ccccc2c1-c1c(OC)ccc2ccccc12,"inactive and inconclusive: 169 nM [activator, full curve, poor fit]"

row,Compound,Potency
1,COC(=O)C1(C(=O)OC)CC(CO)C(=O)[C@@H]1c1ccccc1 (stereo not given in full),inactive
2,CCCCC1=CC2=C(c3ccco3)C(=O)C(C)(OC(=O)c3ccc(OC)cc3)C(=O)C2=CN1c1ccccc1 (stereo not given),"inconclusive: 0.757 µM [activator, partial curve, poor fit]"
3,COC(=O)c1c(C(=O)OC)c2c3cc(OC)c(OC)cc3ccn2c1C(=O)OC,"inconclusive: 0.012 µM [activator, full curve, poor fit]"
4,c1ccc(-c2nc(-c3cccc4ccccc34)c(Nc3ccc4ccccc4c3)o2)cc1,active: 1.51 µM
5,CCCC[C@]12Cc3ccccc3[C@H](O1)c1c(cc(-c3ccccc3)oc1=O)O2,active: 1.69 µM
6,COCc1cc2cc3c(cc2c2c(C(=O)OC)c(C(=O)OC)c(C(=O)OC(C)(C)C)n12)OCO3,"inconclusive: 4.26 µM [inhibitor, single point]"
7,COC(=O)CCCC1=CC2=C(c3ccccc3)C(=O)C(C)(OC(=O)C3CCCC3)C(=O)C2=CN1CCc1ccccn1 (stereo not given),"inconclusive: 0.107 µM [activator, full curve, poor fit]"
8,CC(C)=CCCC(C)=CCN1C(=O)[C@]2(O[C@H](C)CC3=CCCC32)c2c(Br)cccc21 (stereo not given in full),"inconclusive: 1.69 µM [inhibitor, single point]"
9,CCN1C(=S)NC(c2cccs2)C(C(=O)OC)=C1C (stereo not given),"inconclusive: 1.9 µM [inhibitor, partial curve]"
10,CCCC[C@]12Cc3cc(OC)c(OC)cc3[C@H](O1)C1=C(O2)C(=O)c2ccccc2C1=O,active: 1.69 µM
11,COC(=O)CC=C1c2ccc(OC)cc2[C@@H](OC)[C@@H]1C,inactive
12,CC(=O)Nc1ccc(S(=O)(=O)N2CCc3nc(COc4ccccc4)c4c(c3C2)CO[C@@H](C)C4)cc1,inactive
13,Cc1ccccc1Nc1oc(-c2ccccc2)nc1-c1cccc2ccccc12,"inconclusive: 1.69 µM [inhibitor, single point]"
14,COc1ccc2c(c1)C[C@@H](C)O[C@]21C(=O)Nc2ccccc21,"inconclusive: 4.78 µM [inhibitor, partial curve, poor fit]"
15,COC(=O)CC1c2ccccc2C=C(C)N1C(=O)OC (stereo not given),"inconclusive: 0.012 µM [activator, full curve, poor fit]"
16,O=C1C=CC2(OCCCO2)C(Br)=C1CO,"inconclusive: 1.51 µM [inhibitor, partial curve]"
17,Cc1cc2c(c(=O)n1-c1ccccc1)[C@H]1O[C@](c3ccsc3)(Cc3ccccc31)O2,"inconclusive: 2.13 µM [inhibitor, partial curve]"
18,O=C1C=C(c2ccccc2)CCC1,inactive
19,CCOC(=O)C1=CN(CCC=C(C)C)C(=O)NC1c1ccccc1 (stereo not given),"inconclusive: 0.006 µM [inhibitor, partial curve, poor fit]"
20,COC(=O)[C@@H]1CC[C@H](C)[C@@H](c2ccc(C)cc2)N1C(=O)c1ccc(C=NO[C@@H](C)c2cc(-c3c(C)cc(C)cc3C)no2)cc1,active: 1.69 µM
